Test results taken from publication PMC11172314, “Towards Enhanced Tunability of Aqueous Biphasic Systems: Furthering the Grasp of Fluorinated Ionic Liquids in the Purification of Proteins” (International Journal of Molecular Sciences, 2024).
Entries with a single value are a further part of the results.

Biological target: T1, lysozyme (Lys) (Gallus gallus, UniProt P00698)
T1 construct: Lyophilized lysozyme from chicken egg white, ≥90% purity; purchased Millipore (Darmstadt, Germany); host or cells: chicken egg white (natural source)
T1 sequence (P00698 19-147): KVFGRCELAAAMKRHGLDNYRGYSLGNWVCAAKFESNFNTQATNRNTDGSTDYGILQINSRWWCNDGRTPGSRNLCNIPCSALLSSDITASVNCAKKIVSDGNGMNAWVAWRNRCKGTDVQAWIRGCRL
Assay: DSC thermal stability (Tm, ΔH) of lysozyme in water, component solutions and ABS phases
Set-up: species or system chicken
Settings: 1.0 mg/mL Lys, 25 mM component in water, several transitions listed singly
Description: Differential scanning calorimetry (DSC) measurements (Section 3) were used to determine the melting temperature ( Tm ) and enthalpy ( Δ H) of lysozyme, at which both the folded and unfolded states coexist at equilibrium. DSC outputs, thermal transitions at the nanoscale level, allow to analyze alterations on proteins structure and stability, providing sharp perceptions of the factors affecting stability, as well as of the folding and unfolding processes. […] (DSC curve depicted in Figure S16 of Supplementary Materials).
FIL (BP#8, BP#10, BP#11, and BP#12). […] For the system based on [C4C1Im][CF3SO3]
The thermal stability of lysozyme was analyzed in water, ABS phase-forming compounds aqueous solutions, and partition ABS phases. […] Partition lysozyme on each phase from the prepared biphasic points as well as recovered protein from the FIL-rich phase were also addressed for a selection of studied systems listed in Table 1. We acquired thermograms using a TA^TM Nano DSC from TA Instruments. All scans were conducted in a 300 μ L capillary cell through a temperature ramp from 20 to 90 °C at a heating rate of 1 °C/min and 3 atm pressure. All samples were degassed for 7 min at 20 °C, with the exception of FIL-containing samples owing to their surfactant properties. […]

Compound: C[N+](C)(C)CCO.O=S(=O)([O-])C(F)(F)C(F)(F)C(F)(F)C(F)(F)F [[N1112(OH) ][C4F9SO3]]
- Lys Tm (first of three DSC transitions): 80.04 °C
- Lys Tm (third of three DSC transitions): 86.40 °C
